Laboratory results as given in PMC7819943, “Rice protein-binding microarrays: a tool to detect cis-acting elements near promoter regions in rice”.
Some of the results follow.

The sequences below were run against T1, OsWOX13 (Oryza sativa, UniProt Q5QMM3 1-267) (assay: protein-binding microarray (RPBM); PBS, 2% BSA, 51.3 ng/ul salmon testes DNA, 50 uM zinc acetate, 200 nM TF, 25 C, 1 h; high values mean tight binding). Conditions: protein: recombinant; tags: N-terminal polyhistidine and DsRed monomer fusion (pET32a); label: CyDye5-dUTP incorporated in the synthesized complementary strand; 3' TTTTT single-stranded linker to array surface; dsDNA, one strand shown.
T1 sequence: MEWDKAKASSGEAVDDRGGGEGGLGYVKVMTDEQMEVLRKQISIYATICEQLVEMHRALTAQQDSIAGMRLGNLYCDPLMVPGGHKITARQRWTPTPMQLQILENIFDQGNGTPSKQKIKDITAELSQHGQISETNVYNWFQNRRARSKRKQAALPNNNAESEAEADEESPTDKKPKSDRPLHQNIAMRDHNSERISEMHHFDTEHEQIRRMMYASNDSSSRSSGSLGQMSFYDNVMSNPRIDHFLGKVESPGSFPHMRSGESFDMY
Outline: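 The binding signal is fluorescence intensity per array feature (arbitrary units). Readings came from an Axon 4000B scanner after a washed, 2% BSA-blocked, double-stranded custom Agilent array had been incubated for 1 h at 25 °C with 200 nM protein and 50 µM zinc acetate. The protein was a Ni–NTA-purified transcription factor fused N-terminally to polyhistidine and DsRed, expressed in E. coli BL21-CodonPlus.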

Sequence | binding signal
CCTCCTCCTCCCCTTGATTGCTAGGTCGGTCTCTAGGCGGCGGAGTCACCTAGTGCAG | 6900 fluorescence intensity (a.u.)
GTTTGATGTGTGGAATATGTGATGGACTATCTGAGGACTACGGAGTCACCTAGTGCAG | 3990 fluorescence intensity (a.u.)
GGTAACAATCATGATAGAATGGATTGAAAAGATTTAGCCACGGAGTCACCTAGTGCAG | 33400 fluorescence intensity (a.u.)
GATCTAAAGGTGATTGAGAGGCATGTGGCACGTCCACGTCCGGAGTCACCTAGTGCAG | 29700 fluorescence intensity (a.u.)
TAAATTTTGATTGGGTTTGATTAAATTAATTTATAGAAAACGGAGTCACCTAGTGCAG | 33100 fluorescence intensity (a.u.)
AATAATAAATTAATCCCGCGGGTGTCCAGCAACTAATTACCGGAGTCACCTAGTGCAG | 7110 fluorescence intensity (a.u.)
CAAAATTCAATTATTTTACTCTTTATAAATCATTCGAATACGGAGTCACCTAGTGCAG | 7190 fluorescence intensity (a.u.)
GCCTATGATTTGGTTATACTTCAGTTCAGAGTGTCTCGATCGGAGTCACCTAGTGCAG | 9200 fluorescence intensity (a.u.)
AATTAATCAACAAATAATAGTCTTGTAGTAGGAATAAGTACGGAGTCACCTAGTGCAG | 5320 fluorescence intensity (a.u.)
TTAAATTTATTCCTGCCTCAATAAACTACGTATGGTTTCACGGAGTCACCTAGTGCAG | 7810 fluorescence intensity (a.u.)
GACATACCTTGAGATTGACGAAGTCATCACGAACGTCTCACGGAGTCACCTAGTGCAG | 5850 fluorescence intensity (a.u.)
ATAAACTGCAGTAAATAACTGTTCAAAGAAATGAATAATACGGAGTCACCTAGTGCAG | 5620 fluorescence intensity (a.u.)
AATAATAGAATAACTTACATTGTGAATTACTAGTAGTACGCGGAGTCACCTAGTGCAG | 7490 fluorescence intensity (a.u.)
GCCAATAGTGATTGAGACAGACTGCTTGGCGATGATCCATCGGAGTCACCTAGTGCAG | 42600 fluorescence intensity (a.u.)
CTAAAATATCTGTAATTACGGAACCGAAGGAAGTAGAGACCGGAGTCACCTAGTGCAG | 15600 fluorescence intensity (a.u.)
ATAATTGATAATGAAGACCAAGGAAATGCTTCTTTGGTCCCGGAGTCACCTAGTGCAG | 54300 fluorescence intensity (a.u.)
CGATCCGAGATTAATTGTGCTCATACTGTTCGACGAATTGCGGAGTCACCTAGTGCAG | 5200 fluorescence intensity (a.u.)
GTTCTAAATTATTGGAGCGGAGGGAGAATGTTATTTAACACGGAGTCACCTAGTGCAG | 7640 fluorescence intensity (a.u.)
TTACACCTTAATTAAACCTGATGTTCACCACACAAAAGTTCGGAGTCACCTAGTGCAG | 5790 fluorescence intensity (a.u.)
GTTAATTTAGAGCGTCACGGGCTAGTTCCGTTCGGGGCTACGGAGTCACCTAGTGCAG | 14300 fluorescence intensity (a.u.)
GGAGGGCGGGCTGTTATATTCTTCACACCTTGCATGTAAGCGGAGTCACCTAGTGCAG | 3310 fluorescence intensity (a.u.)
ATTTCAATCAAACTTCCAATTTTAGCGTGAAGTAAACACACGGAGTCACCTAGTGCAG | 21100 fluorescence intensity (a.u.)
AAACTAATTTCGAATCTAAATTCGATGAGAAGATCGGGATCGGAGTCACCTAGTGCAG | 9230 fluorescence intensity (a.u.)
